# Measured values from ChEMBL document CHEMBL4888484, “Replenishing the malaria drug discovery pipeline: Screening and hit evaluation of the MMV Hit Generation Library 1 (HGL1) against asexual blood stage Plasmodium falciparum ,using a nano luciferase reporter read-out” (2022).
# About 540 (0.36%) of roughly 150,000 compounds showed an effect of 50% or more. The list shows a part of the results.
# Test system: Plasmodium falciparum
# Assay: Primary screen in NF54 nanoGlo assay, in single point, at 2uM, 72h; a lower Z score goes with more inhibition
# Type: functional, Erythrocyte
# Conditions: timepoint 72 hour
SMILES,% Inhibition [%],Z score
COc1ccc(NC(=O)Cc2coc3cc(C)c(C(C)C)cc23)cc1S(=O)(=O)N1CCCCC1,-11,1.34
CCN1CCN(C(=O)c2ccc(C)n2C(F)F)[C@@H](C)C1=O,-7,1.34
CCc1cnc(-c2cnn(CC(=O)Nc3c(CC)c(CC)nn3C)c2)nc1,-5,0.81
COC[C@H]1CCN(c2nc(-c3ccccn3)nc3c2CCNCC3)C1,-2,0.41
C[C@H]1CCc2c(cc(-c3ccccc3)n2-c2ccc(C(=O)NCc3cccc(Cl)c3)cc2)C1,-13,2.54
O=C(CN1CCc2nc(NC(=O)c3ccccn3)sc2C1)Nc1ccc(F)cc1F,-1,0.21
CCc1cnc(NC(=O)NC[C@H]2CN(C)C[C@@H]2c2ccccc2)s1,-11,1.47
CCN(C(=O)c1nccn1C)[C@H]1CCCC[C@@H]1O,-22,1.97
O=C(Cc1nnc2ccc(C(=O)Nc3ccccc3)cn12)Nc1ccc(F)cc1,32,-0.7
CS(=O)(=O)N1CCN(C(=O)N2CC[C@H](n3cc(C4CC4)nn3)C2)C1=O,-12,1.45
O=C(Nc1cccc2c1COCC2)N[C@H]1CCO[C@@H]1c1ccnn1CC1CC1,-2,0.21
O=S(=O)(C[C@H]1CCCCO1)Nc1ccc(Br)c(O)c1,11,-1.07
COc1ccc(C(=O)CNC(=O)Cc2c(F)cccc2F)cc1,-1,0.21
Cc1oc(C)c(C(=O)Nc2cccc(S(=O)(=O)N3CCCC3)c2)c1C,-7,0.82
COc1cc(C(=O)N(CCO)Cc2cccs2)ccc1OC1CCN(C)CC1,-4,0.83
CN(OCc1ccccc1)C(=O)C(=O)Nc1ccc(F)cc1C#N,5,-0.56
CC[C@H](NS(=O)(=O)c1cc(Cl)cnc1N)c1ccncc1,-3,0.43
CCN1CCC[C@H](NC(=O)c2ccccc2-c2nnc(C)o2)C1,-11,1.55
Cn1cnnc1NC(=O)CCc1ccccc1,7,-1.04
CC1(C)C[C@@H]1C(=O)N(CCCn1ccnc1)Cc1cccnc1,-8,1.5
Nc1c(NCCn2ccnc2)ncnc1-n1cccn1,-6,0.7

SMILES,% Inhibition [%],Z score
Cc1ccsc1[C@H](C)NCc1ccc(Cn2ccnc2)cc1,2,-0.22
CC(C)CC(NC(=O)c1csc(C2CCCO2)n1)c1ccccn1 (stereo unspecified),-8,1.03
C=CCc1cc(CN(C[C@H]2CCC(=O)N2)C(C)C)ccc1OC,3,-0.47
Cc1cc(C)c2c(c1)N(Cc1nnnn1CC(F)(F)F)CCO2,3,-0.39
CCc1ccc(N2CCN(C(=O)CN3C(=O)NC4(CCCCC4C)C3=O)CC2)cc1 (stereo unspecified),-4,0.5
Cc1cc(C(=O)N(Cc2ccccc2)CC2(C)CCOCC2)[nH]n1,-13,1.95
CN(c1nnc(-c2cccn2C)n1C[C@H]1CCOC1)C1CC1,-8,1.48
COc1ccc(F)cc1C(=O)C(=O)N[C@H]1CC[C@@H](C(=O)N2CCCC2)C1,-3,0.27
Cc1ncoc1CNC(=O)c1ncn(C(C)(C)C)n1,5,-0.63
COC(=O)c1cccc(-c2nccn2C[C@H](O)c2ccccc2)c1,-8,1.57
Cc1ccc(CN2CCN([C@H]3CCN(Cc4ccccc4)C3)CC2)nn1,6,-0.85
CN1CC[C@H](N2CC3(CCC2=O)CCN(c2ccc(Cl)cn2)CC3)C1,-7,0.71
Cc1c(C)c2c(c(C)c1NC(=O)CCc1cc3n(n1)CCNC3)NC(=O)CO2,-5,0.64
CC(C)(C)NC(=O)N1CCC2(CC1)N[C@@H](Cc1ccccc1)C(=O)N2Cc1ccc(F)cc1,-24,2.52
COCCOCc1nc([C@H]2CCN(S(=O)(=O)c3ccc4c(c3)OCCO4)C2)no1,-9,1.71
Cn1cccc1C(=O)C(=O)N1CCC[C@](C)(Cc2ccc3c(c2)OCO3)C1,5,-0.93
Cc1ccc(CNC(=O)N2CCC3(CC2)NC(=O)c2ccc(F)cc2N3C)cc1,-8,1
COc1ccc(CNc2nc3c(C)cccc3cc2-c2noc(C(C)C)n2)c(OC)c1,-11,2.07
C=CCC[C@H](O)CN1CCC(Nc2cccc(C)n2)CC1,-2,0.2
COc1ccc(N2CCN(C(=O)NC3CCOCC3)CC2)cc1,-13,2.28
CCOCC(=O)Nc1ccc(N2CCCC2)c2ncccc12,14,-1.87

SMILES,% Inhibition [%],Z score
CC(=O)N[C@@H](C)C(=O)N1CCC(COc2cc(Cl)cc(Cl)c2)CC1,19,-2.45
CCCC1(C2CCN(C(=O)C(OC)c3ccccc3)CC2)NC(=O)N(CCc2cccs2)C1=O (stereo unspecified),13,-1.72
Cc1cc(C(=O)NCCCNC(=O)c2cccc(F)c2)on1,-3,0.35
CC1(C)C2CCC1(C)C1(C2)NC(=O)NC1=O (stereo unspecified),4,-0.79
COc1ccc(-c2nnc([C@H](C)OC(=O)CCS(=O)(=O)c3ccccc3)o2)cc1,-10,1.55
Cc1ccc(-c2cc(C(=O)N(C)C3CCCCC3)c3c(C)nn(C)c3n2)cc1,0,-0.01
O=C1NCCN2CCN(C(=O)CCCc3ccccc3)CC[C@@H]12,-7,1.15
COc1cc(Br)c(F)cc1S(=O)(=O)N1CCCNC(=O)[C@@H]1C,-6,0.66
CCn1nc(C)c(CCn2ccnc2C2CC2)c1C,-3,0.38
CN(CCCC(C)(C)C)Cc1nnc2n1CCN(C)C2=O,-3,0.52
COC(=O)[C@H](NC(=O)CN1CCOc2ccc(Cl)cc21)c1ccc(O)cc1,34,-0.75
C[C@H]1C[C@@H](C(F)F)n2ncc(C(=O)NC[C@@H](O)C(F)(F)F)c2N1,0,-0.01
O=C(NC1CCCCC1)c1[nH]cnc1C(=O)N1CCN(Cc2ccccc2)CC1,18,-2.04
COCCN(Cc1csc(COc2cccc(C)c2)n1)C(=O)C1CCCC1,1,-0.08
CCC(CC)n1nccc1C(=O)Nc1sc2c(c1C#N)CCC2,-2,0.39
O=C(NCC1(O)CCCC1)Nc1cccs1,-6,1.03
Fc1ccc(N2CCC(NCCCn3cccn3)CC2)cc1F,-6,0.98
Cc1csc(CCNC(=O)COC2CCCC(C)C2)n1 (stereo unspecified),-5,0.69
CC(C)c1nnc(NC(=O)NCCc2nnc(-c3ccco3)[nH]2)s1,-1,0.27
CCn1c(CC2CCN(C(=O)Cc3ccncc3)CC2)nn(C)c1=O,-7,1.43
CC(C)(C)OC(=O)N1CCC[C@@H]1CNC(=O)c1ccccc1NC(=O)C(C)(C)C,-5,0.5

SMILES,% Inhibition [%],Z score
O=C(Cn1cnc2ccccc2c1=O)Nc1cc(OCc2ccc3c(c2)OCO3)ncn1,1,-0.11
CC[C@]1(c2ccc(C)cc2)CC(=O)N(Cc2nccc(N)n2)C1=O,-6,0.79
Cc1cc(C)cc(CON=C(N)CCO)c1,39,-5.07
CC1(C)[C@H]2CC=C(CCNC(=O)Cc3cccnc3)[C@@H]1C2,-3,0.5
COCCn1cnc2c(-c3ccccc3)cn(CC(=O)NCc3ccc(F)cc3)c2c1=O,-9,1.37
COc1ccc(CNCCC(CCC(C)C)C2CCOC(C)(C)C2)cc1 (stereo unspecified),10,-1.8
COc1ccc(C(=O)c2c(N)nc3n2CCC3)c(OC)c1,-2,0.19
CCc1ccc(-n2cnnc2)cc1NS(=O)(=O)NCc1ccccc1,-2,0.28
Cc1nnc(C(C)NC(=O)[C@H]2C[C@@H]2c2cccc(Cl)c2)[nH]1 (stereo partly specified),-4,0.77
Cc1cccc(NC(=O)c2cc(-c3cccnc3)nc3ccccc23)n1,-3,0.58
CCC(=O)NC1CCN(C(=O)c2ccc(-c3ccccc3)[nH]2)CC1,-7,1.38
Cc1cnn(CC(=O)[C@H](C#N)c2nc3cc(Cl)ccc3c(=O)[nH]2)c1,-9,1.66
CCc1nnc2ccc(NC3CCCCCCC3)nn12,-16,1.4
COc1ccccc1C(=O)N1CCN(S(=O)(=O)c2cc3c(cc2C)NC(=O)CO3)CC1,-13,1.32
Cc1ccc(N2C[C@@H](c3n[nH]c(=S)o3)CC2=O)cc1,-4,0.35
CC(C)(C(=O)N1CCC(Cc2nc3ccccc3[nH]2)CC1)c1cccnc1,28,-3.21
COc1ccc(CN2C(=O)COC[C@H]2C(=O)Nc2cc(C)c(Cl)cc2OC)c(OC)c1,-2,0.27
C[C@H]1CC(=O)N(C)c2ccccc2N1C(=O)c1ccc2ccccc2n1,8,-1.03
CN1CCCCC[C@H](O)c2cc(C(=O)N3CCCCCC3)ccc21,-21,2.44
COCCCN1CCN(C(=O)c2cnc(C3CC3)nc2)CC1,-15,2.09
